Assay results: patent US9745365B2, “Anti-influenza B virus hemagglutinin antibodies and methods of use” (priority 2014, dated 2017)
Like-named read-outs stand apart in the source and are kept apart here.

Assays:
[1] = tested on: influenza B virus B/Victoria/2000
[2] = tested on: influenza B virus B/Victoria/2000; settings: by day 9 or 10; 4xLD100; treatment from 48 hours post infection
[3] = tested on: influenza B virus B/Victoria/2000; settings: by day 11; 2 mg twice daily (BID) for five days

**Q.** How did the “protection compared to vehicle control treated animals” value ([1]; 10, 30 or 100 mg/kg BID beginning 72 hours post infection) turn out when `CCOC(=O)C1=C[C@@H](OC(CC)CC)[C@H](NC(C)=O)[C@@H](N)C1` [oseltamivir phosphate] was run?
**A.** Its value is “some protection”.

**Q.** And the mortality ([1]; by day 11, even at the highest dose (10, 30 or 100 mg/kg BID beginning 72 hours post infection))?
**A.** Its mortality is 100%.

**Q.** What about the mortality [2] of the same compound?
**A.** The mortality was 100%.

**Q.** What about the mortality [3] of the same compound?
**A.** The mortality was 100%.
